# Experimental data taken from PubChem BioAssay (Tox21).
# “And” between values parts separate entries of the source, which are not always exact repeats. Identical values can stand only once. This list was built around the results that the source calls inconclusive (neither active nor inactive); the mix of calls is not that of the screen. For some of these results: Potencies beside an inconclusive call are fits to weak or partial responses and may not hold up. Some compounds were tested as several samples or in several runs, with calls that do not always agree. The source made the active and inactive calls. Unless noted, calls come from the whole dose curve; as a rule, active = well fitted curve in the direction sought with a large enough effect in the repeat runs; inconclusive = weak or mixed curves; inactive = no such curve, though single readings can be large; an effect the other way counts as inactive or inconclusive.
# Legend:
# [1] = qHTS assay to identify small molecule antagonists of the retinoid-related orphan receptor gamma (ROR-gamma) signaling pathway - cell viability counter screen (AID 1159520); note: nearly all actives have a fitted effect of over 50% in size
# In short: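 Cytotoxicity was read from cellular ATP (CellTiter-Glo luminescence) after 16 hr at 37 C with 1 uM doxycycline induction. The inducer was added 2 hr after compound transfer to Tet-on ROR gamma CHO cells.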
# [2] = molecular target: Nuclear receptor ROR-gamma (Homo sapiens) (UniProt P51449); test: qHTS assay to identify small molecule antagonists of the retinoid-related orphan receptor gamma (ROR-gamma) signaling pathway (AID 1159521; note: nearly all actives have a fitted effect of over 50% in size)
# In short: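 CHO cells expressing RORγ under a TET-on promoter, luciferase under RORE control. Dox 1 uM final, 16 h; compounds added 2 h prior. Luminescence decrease measured.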
# [3] = qHTS assay to identify small molecule agonists of the AP-1 signaling pathway (AID 1159526; calls by dose curve; for activation: % is set by controls: 0 for no effect and ±100 for the full control effect); conditions: ME-180 (cervical carcinoma) AP-1-bla reporter, beta-lactamase FRET ratio, 5 h
# [4] = molecular target: Retinoic acid receptor RXR-alpha (Homo sapiens) (UniProt P19793); test: qHTS assay to identify small molecule agonists of the RXR signaling pathway (AID 1159527; calls by dose curve; note: nearly all actives have a fitted effect of over 35% in size; for activation: % is set by controls: 0 for no effect and ±100 for the full control effect); conditions: HEK293T RXRa-UAS-bla, beta-lactamase ratio, 16 h; activation: at 76.8 µM (top of the series) unless noted
# Chain of UniProt P19793 (P19793 whole entry, looked up): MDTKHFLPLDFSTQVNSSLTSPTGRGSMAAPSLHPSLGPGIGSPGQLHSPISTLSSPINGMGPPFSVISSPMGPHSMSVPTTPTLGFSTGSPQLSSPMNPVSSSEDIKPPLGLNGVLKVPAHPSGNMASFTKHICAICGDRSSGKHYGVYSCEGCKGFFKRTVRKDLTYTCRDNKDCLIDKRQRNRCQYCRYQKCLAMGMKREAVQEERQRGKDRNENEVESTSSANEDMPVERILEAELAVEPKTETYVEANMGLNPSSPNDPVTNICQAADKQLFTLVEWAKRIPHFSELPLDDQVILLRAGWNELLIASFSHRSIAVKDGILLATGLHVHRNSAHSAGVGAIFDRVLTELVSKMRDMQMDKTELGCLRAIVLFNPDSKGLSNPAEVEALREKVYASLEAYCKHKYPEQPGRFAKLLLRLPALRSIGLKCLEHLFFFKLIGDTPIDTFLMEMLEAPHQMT
# In short: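 Beta-lactamase reporter assay, agonist format. Engineered HEK 293T line, charcoal-stripped FBS at 2%, overnight (16 hr) exposure, fluorescence at 460 and 530 nm after 405 nm excitation.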
# [5] = qHTS assay to identify small molecule agonists of the RXR signaling pathway - cell viability counter screen (AID 1159529); note: nearly all actives have a fitted effect of over 50% in size
# In short: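 Same-well viability check after the LiveBLAzer FRET read: CellTiter-Glo added, luminescence measured after 30 min at room temperature. Reporter HEK 293T cells had been treated with compounds for 16 hr following a 5 hr preincubation.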
# [6] = qHTS assay to identify small molecule antagonists of the retinoic acid receptor (RAR) signaling pathway (AID 1159552; note: nearly all actives have a fitted effect of over 50% in size)
# In short: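 Readout: luciferase luminescence, 30 min post-reagent at RT. Setup: C3RL4 RARE reporter cells, compounds plus retinol 1 uM final, 6 hr incubation at 37 C and 5% CO2.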
# [7] = qHTS assay to identify small molecule antagonists of the estrogen related receptor (ERR) signaling pathway from Tox21 library - cell viability counter screen (AID 1224834); note: nearly all actives have a fitted effect of over 30% in size
# In short: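 Multiplexed viability counter screen in ERR cells: 17.5 h compound exposure at 37 C, CellTiter-Fluor added, 30 min at 37 C/5% CO2, fluorescence read.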
# [8] = qHTS assay to identify small molecule agonists of the endoplasmic reticulum stress response signaling pathway - cell viability counter screen (AID 1159517; calls by dose curve; note: nearly all actives have a fitted effect of over 50% in size)
# In short: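 After overnight attachment, ESRE-bla HeLa cells were treated with Tox21 library compounds for 5 hr. CellTiter-Glo luminescence, read 30 min post-addition at room temperature, reported viability.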
# [9] = qHTS assay to identify small molecule agonists of the retinoic acid receptor (RAR) signaling pathway (AID 1159553); conditions: C3RL4 RARE luciferase reporter, agonist, 6 h; activation: at 73.3 µM (top of the series) unless noted; for activation: % is set by controls: 0 for no effect and ±100 for the full control effect
# In short: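 RARE-luc C3RL4 cells; overnight attachment 37 C/5% CO2; compound (DMSO) 6 hr; luciferase reagent, 30 min RT; luminescence read-out.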
# [10] = molecular target: Luciferin 4-monooxygenase (Photinus pyralis) (UniProt P08659); test: qHTS assay to identify small molecule inhibitors of firefly luciferase (AID 1224835); note: nearly all actives have a fitted effect of over 25% in size
# Chain of UniProt P08659 (P08659 whole entry, looked up): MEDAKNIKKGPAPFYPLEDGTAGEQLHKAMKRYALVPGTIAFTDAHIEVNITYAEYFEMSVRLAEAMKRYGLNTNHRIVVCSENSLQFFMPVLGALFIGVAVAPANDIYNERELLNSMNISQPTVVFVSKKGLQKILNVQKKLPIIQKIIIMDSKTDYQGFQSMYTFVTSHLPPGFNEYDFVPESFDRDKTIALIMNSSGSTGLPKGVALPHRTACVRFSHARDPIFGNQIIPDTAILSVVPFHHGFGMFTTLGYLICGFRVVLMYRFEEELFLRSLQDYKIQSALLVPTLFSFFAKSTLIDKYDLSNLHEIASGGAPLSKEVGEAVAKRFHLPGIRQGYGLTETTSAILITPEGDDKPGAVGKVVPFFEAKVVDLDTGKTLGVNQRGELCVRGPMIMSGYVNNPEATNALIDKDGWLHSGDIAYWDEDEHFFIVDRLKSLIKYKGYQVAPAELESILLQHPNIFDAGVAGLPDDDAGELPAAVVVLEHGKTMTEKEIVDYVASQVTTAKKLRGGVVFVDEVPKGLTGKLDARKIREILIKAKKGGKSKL
# In short: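 Inhibition of purified Photinus luciferase is measured by luminescence. Substrate levels (D-luciferin, ATP) sit at their KM values. Each compound is tested in a concentration series.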
# [11] = qHTS assay to identify small molecule agonists of the AP-1 signaling pathway - cell viability counter screen (AID 1159525; calls by dose curve; note: nearly all actives have a fitted effect of over 55% in size)
# In short: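 Intracellular ATP by Cell Titer Glo luminescence (30 min, RT) in the same ME-180 AP-1-bla wells after the 5 h compound exposure at 37 °C. Normalised to tetra n-octyl ammonium bromide and DMSO controls.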
# [12] = qHTS assay to identify small molecule agonists of the constitutive androstane receptor (CAR) signaling pathway - cell viability counter screen (AID 1224836); note: nearly all actives have a fitted effect of over 45% in size
# In short: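 Compound titrations (15 concentrations) went onto HepG2-CYP2B6-hCAR cells 4 h after seeding, alongside PK11195 at a final 0.75 uM; a 23 h, 37 C/5% CO2 incubation preceded CellTiter-Fluor viability measurement.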
# [13] = qHTS assay to identify small molecule antagonists of the constitutive androstane receptor (CAR) signaling pathway - cell viability counter screen (AID 1224837); note: nearly all actives have a fitted effect of over 45% in size
# In short: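 Read-out: CellTiter-Fluor fluorescence after 23 hr at 37 C/5% CO2. Cells: HepG2 double-stable for hCAR and CYP2B6-2.2kb. Compounds tested at 15 concentrations in the presence of CITCO, final concentration 50 nM.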
# [14] = qHTS assay to identify small molecule antagonists of the retinoid acid receptor (RAR) signaling pathway - cell viability counter screen (AID 1159551); note: nearly all actives have a fitted effect of over 35% in size
# In short: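 C3RL4 RARE-luciferase line; cpds + retinol 1 uM final, 6 h, 37 C/5% CO2; CellTiter-Glo ATP luminescence, 30 min RT.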
# [15] = qHTS assay to identify small molecule antagonists of the estrogen related receptor (ERR) signaling pathway - cell viability counter screen (AID 1224818)
# In short: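 Fluorescence from CellTiter-Fluor, read 30 min after reagent addition at 37 C, measured viability of ERR cells exposed to compounds for 17.5 h. Cells had settled 6 h before dosing.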
# [16] = qHTS assay to identify small molecule antagonists of the estrogen related receptor signaling pathway with the pleiotropic PPARgamma coactivator (PGC) cell viability counter screen (AID 1224822)
# In short: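 Fluorescence read-out of CellTiter-Fluor after 30 min at 37 C; PGC/ERR cells, 2,000 per well, had been exposed to DMSO-dissolved compounds for 17.5 h following a 6 h pre-incubation.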
# [17] = activation: at 76.8 µM (top of the series) unless noted
# Potency is the fitted concentration of half-maximal effect; tags give direction and shape of the fitted curve or compound fluorescence and quenching.
compound,measurement,setting,value
CC(C)Oc1cc(-n2nc(C(C)(C)C)oc2=O)c(Cl)cc1Cl,Potency,[1],"inconclusive: 60.3 µM [cytotoxic, single point]"
same,Potency,[2],"inconclusive: 53.7 µM [inhibitor, partial curve] and inconclusive: 77 µM [inhibitor]"
same,activation,[3]; [17],inconclusive: -0.207%
same,Potency,[4],"inconclusive: 49 µM [rising, partial curve, poor fit]"
same,activation,[4],inconclusive: -23.9%
same,Potency,[5],"inconclusive: 60.8 µM [cytotoxic, single point] and inconclusive: 43.6 µM [cytotoxic, partial curve]"
same,Potency,[6],"inconclusive: 60.3 µM [inhibitor] and inconclusive: 54.5 µM [inhibitor, partial curve]"
same,Potency,[7],"inconclusive: 77 µM [cytotoxic, single point]"
COCCC#N,Potency,[8],"inconclusive: 5.99 µM [rising, partial curve]"
same,Potency,[4],inactive
Cc1cc(-c2ccc(N)c(C)c2)ccc1N,Potency,[8],"inactive and inconclusive: 219 nM [cytotoxic, full curve, poor fit]"
same,Potency,[4],inconclusive: 22.1 µM [activator] and inconclusive: 17.4 µM [inhibitor]
same,Potency,[9],"active: 15.1 µM and inconclusive: 34.3 µM [activator, partial curve] and inconclusive: 969 nM [activator, full curve, poor fit]"
same,activation,[9],inconclusive: 6.74% [phenotype inactive] [at 94.8 µM]
same,Potency,[10],"inconclusive: 62.4 µM [inhibitor, partial curve]"
CC(=O)C(Cl)(Cl)Cl,Potency,[1],"inconclusive: 4.69 µM [cytotoxic, partial curve, poor fit]"
same,Potency,[2],active: 9.35 µM
same,Potency,[11],inactive
same,activation,[3]; [17],inconclusive: -16.4%
same,activation,[4],inconclusive: 22.5%
same,Potency,[5],"inconclusive: 2.11 µM [cytotoxic, single point]"
same,Potency,[6],active: 29.6 µM
same,Potency,[10],"inconclusive: 76.9 µM [inhibitor, partial curve]"
same,Potency,[12],active: 16.6 µM
same,Potency,[13],active: 20.9 µM
O=C(O)c1cc(Oc2ccc(C(F)(F)F)cc2Cl)ccc1[N+](=O)[O-],Potency,[8],"inconclusive: 19.5 µM [rising, single point]"
same,Potency,[6],inactive
same,Potency,[7],inactive
C=COC(C)=O,Potency,[8],inactive
same,Potency,[6],inactive
CC(=O)Nc1ccc2c(c1)Cc1ccccc1-2,Potency,[8],"inconclusive: 12.5 µM [rising, partial curve, poor fit]"
same,Potency,[9],active: 6.21 µM
O=[N+]([O-])c1cc(C(F)(F)F)c(Cl)c([N+](=O)[O-])c1Nc1ncc(C(F)(F)F)cc1Cl,Potency,[1],active: 4.86 µM
same,Potency,[3]; [17],"inconclusive: 19.5 µM [cytotoxic, partial curve]"
same,Potency,[4],inconclusive: 21.9 µM [cytotoxic]
same,Potency,[5],active: 7.76 µM
same,Potency,[9],"inconclusive: 68.6 µM [inhibitor, single point]"
same,Potency,[10],"inconclusive: 89.4 µM [inhibitor, single point]"
same,Potency,[13],active: 15.4 µM
ClC1C(Cl)C(Cl)C(Cl)C(Cl)C1Cl (centres undefined),Potency,[1],"inconclusive: 61.1 µM [cytotoxic, partial curve, poor fit]"
same,Potency,[11],"inconclusive: 62.2 µM [cytotoxic, single point] [middle of 4 runs]"
same,Potency,[5],active: 43.6 µM [middle of 5 runs]
same,Potency,[14],"inconclusive: 68 µM [cytotoxic, partial curve, poor fit] [middle of 4 runs]"
same,Potency,[9],inactive
same,Potency,[7],"inconclusive: 61.7 µM [cytotoxic, single point] [middle of 5 runs]"
CN1C[C@H](C(=O)N[C@]2(C)O[C@@]3(O)[C@@H]4CCCN4C(=O)[C@H](Cc4ccccc4)N3C2=O)C=C2c3cccc4[nH]cc(c34)C[C@H]21,Potency,[1],inconclusive: 48.8 µM [cytotoxic]
same,Potency,[11],inconclusive: 24.7 µM [cytotoxic]
same,Potency,[3]; [17],inconclusive: 19.6 µM [cytotoxic]
same,Potency,[4],"inconclusive: 13.9 µM [inhibitor, partial curve, poor fit] and inactive"
same,Potency,[5],"active: 22 µM and inconclusive: 20.4 µM [cytotoxic, single point]"
same,Potency,[7],active: 24.4 µM and active: 9.01 µM
same,Potency,[10],"inconclusive: 33.1 µM [inhibitor, partial curve]"
same,Potency,[12],"inconclusive: 30.8 µM [cytotoxic, full curve]"
Oc1cccc2cccnc12,Potency,[1],"inconclusive: 9.74 µM [cytotoxic, full curve] and inconclusive: 11.6 µM [cytotoxic, full curve] and active: 3.44 µM"
same,Potency,[2],"active: 774 nM and inconclusive: 9.18 µM [inhibitor, full curve, poor fit] and active: 864 nM"
same,Potency,[5],"active: 780 nM and inconclusive: 736 nM [cytotoxic, full curve] and active: 692 nM"
same,Potency,[14],"inconclusive: 6.14 µM [rising, full curve]"
same,Potency,[15],"inconclusive: 48.6 µM [cytotoxic, single point]"
same,Potency,[16],active: 0.727 µM
same,Potency,[7],"active: 2.74 µM and inconclusive: 57.9 µM [cytotoxic, partial curve] and active: 2.43 µM"
same,Potency,[13],"inconclusive: 36.5 µM [cytotoxic, partial curve, poor fit]"
S=C(SSC(=S)N1CCCCC1)N1CCCCC1,Potency,[1],active: 0.188 µM
same,Potency,[11],"inconclusive: 0.601 µM [rising, partial curve]"
same,Potency,[3]; [17],"inconclusive: 0.425 µM [falling, full curve]"
same,Potency,[4],inconclusive: 0.107 µM
same,Potency,[6],"inconclusive: 0.15 µM [inhibitor, full curve, poor fit]"
same,Potency,[9],"inconclusive: 0.531 µM [inhibitor, full curve, poor fit]"
same,Potency,[13],active: 0.335 µM
OC(c1ccccc1)(c1ccccc1)C1CCNCC1,Potency,[1],inactive
same,Potency,[2],"inconclusive: 0.668 µM [inhibitor, single point]"
same,Potency,[5],inactive
same,Potency,[6],"inconclusive: 10.6 µM [inhibitor, partial curve, poor fit]"
O=C(NC(=O)c1c(F)cccc1F)Nc1ccc(Oc2ccc(C(F)(F)F)cc2Cl)cc1F,Potency,[1],"inconclusive: 24.3 µM [cytotoxic, partial curve]"
same,Potency,[11],inactive
same,Potency,[3]; [17],"inconclusive: 3.89 µM [falling, partial curve, poor fit]"
same,activation,[4],inconclusive: 6.38%
same,Potency,[5],"inconclusive: 54.9 µM [cytotoxic, partial curve, poor fit]"
same,Potency,[6],"inconclusive: 48.6 µM [inhibitor, partial curve]"
same,Potency,[9],"inconclusive: 61.1 µM [inhibitor, partial curve, poor fit]"
same,Potency,[7],"inconclusive: 68.6 µM [cytotoxic, single point]"
FC(F)C(F)(F)OCC(Cn1cncn1)c1ccc(Cl)cc1Cl (centres undefined),Potency,[1],inconclusive: 68.2 µM [cytotoxic]
same,Potency,[2],inconclusive: 30.5 µM [inhibitor]
same,Potency,[4],inactive
same,Potency,[10],inactive
same,Potency,[12],"inconclusive: 68.2 µM [cytotoxic, partial curve, poor fit]"
same,Potency,[13],"inconclusive: 68.2 µM [cytotoxic, single point]"
Cc1c(COC(=O)[C@@H]2[C@H](/C=C(\Cl)C(F)(F)F)C2(C)C)cccc1-c1ccccc1,Potency,[1],"inconclusive: 59.7 µM [cytotoxic, single point]"
same,Potency,[3]; [17],inactive
CCOC(=O)CC(=O)CCl,Potency,[1],"inconclusive: 27.3 µM [cytotoxic, full curve]"
same,Potency,[3]; [17],inactive
same,Potency,[4],"inconclusive: 9.77 µM [inhibitor, full curve]"
same,Potency,[5],inactive
same,Potency,[6],"inconclusive: 24.3 µM [inhibitor, full curve]"
O=[N+]([O-])c1ccc(O)c([N+](=O)[O-])c1,Potency,[1],"inconclusive: 19.4 µM [cytotoxic, partial curve]"
same,Potency,[11],"inconclusive: 55.2 µM [rising, single point]"
same,activation,[3]; [17],inconclusive: -5.68%
same,Potency,[4],"inconclusive: 27.5 µM [rising, partial curve]"
same,activation,[4],inconclusive: -0.0395%
same,Potency,[5],"inconclusive: 19.6 µM [cytotoxic, full curve] and active: 12.3 µM"
same,Potency,[7],active: 27.4 µM and active: 27.3 µM
same,Potency,[12],"active: 30.8 µM and inconclusive: 48.6 µM [cytotoxic, partial curve]"
same,Potency,[13],"inconclusive: 27.3 µM [cytotoxic, partial curve]"
CCC(C)c1cc([N+](=O)[O-])cc([N+](=O)[O-])c1O (centres undefined),Potency,[1],"inconclusive: 7.7 µM [cytotoxic, full curve]"
same,activation,[3]; [17],inconclusive: -11.9%
same,activation,[3]; at 76.8 µM (top of the series),inactive: 0.955%
same,Potency,[5],inconclusive: 1.95 µM [cytotoxic]
same,Potency,[9],inactive
same,Potency,[7],active: 19.3 µM
same,Potency,[10],"inconclusive: 39.9 µM [inhibitor, partial curve]"
